The text below walks through data of article PMC4336329 (PLoS ONE, 2015).

Among all 310,000 compounds or so, about 2,200 (0.71%) showed an effect of 50% or more. The effect is printed as a negative number. This is one part of the list.

The target of this assay is human ether-à-go-go-related gene (hERG) potassium channel (human, UniProt Q12809). Nature of the assay: primary screen, population patch clamp on CHO cells stably expressing hERG.
human ether-à-go-go-related gene (hERG) potassium channel, sequence (Q12809 whole entry, looked up): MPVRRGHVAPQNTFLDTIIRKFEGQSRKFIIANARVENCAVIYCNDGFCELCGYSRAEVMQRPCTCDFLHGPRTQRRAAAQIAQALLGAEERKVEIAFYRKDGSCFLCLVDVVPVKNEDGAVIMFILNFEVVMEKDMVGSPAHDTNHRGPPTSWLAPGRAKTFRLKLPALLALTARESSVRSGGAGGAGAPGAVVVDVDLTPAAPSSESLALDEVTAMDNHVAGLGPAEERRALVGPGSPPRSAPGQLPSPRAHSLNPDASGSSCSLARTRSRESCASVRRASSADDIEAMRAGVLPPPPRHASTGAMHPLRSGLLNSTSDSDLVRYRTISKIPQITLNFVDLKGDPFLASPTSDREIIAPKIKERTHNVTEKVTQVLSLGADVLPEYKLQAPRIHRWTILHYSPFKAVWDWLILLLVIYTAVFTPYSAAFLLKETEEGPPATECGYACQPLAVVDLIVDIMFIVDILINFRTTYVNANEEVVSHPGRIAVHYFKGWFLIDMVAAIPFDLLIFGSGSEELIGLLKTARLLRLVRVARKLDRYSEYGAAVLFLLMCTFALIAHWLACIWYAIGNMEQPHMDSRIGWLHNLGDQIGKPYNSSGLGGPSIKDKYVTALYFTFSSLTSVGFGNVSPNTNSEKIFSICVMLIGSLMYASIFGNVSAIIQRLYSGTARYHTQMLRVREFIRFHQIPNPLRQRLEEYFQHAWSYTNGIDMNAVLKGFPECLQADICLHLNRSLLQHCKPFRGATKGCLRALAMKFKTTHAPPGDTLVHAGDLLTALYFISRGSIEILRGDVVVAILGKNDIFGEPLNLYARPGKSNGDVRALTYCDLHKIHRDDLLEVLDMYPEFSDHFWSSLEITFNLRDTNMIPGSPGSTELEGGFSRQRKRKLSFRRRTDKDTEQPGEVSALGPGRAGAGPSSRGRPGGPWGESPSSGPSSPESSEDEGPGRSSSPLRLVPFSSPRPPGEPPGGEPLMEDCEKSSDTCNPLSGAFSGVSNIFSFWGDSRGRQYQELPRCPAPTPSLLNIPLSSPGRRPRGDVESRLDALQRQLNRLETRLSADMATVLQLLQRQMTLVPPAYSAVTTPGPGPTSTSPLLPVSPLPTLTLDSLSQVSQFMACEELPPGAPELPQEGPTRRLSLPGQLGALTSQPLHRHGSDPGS
For the molecule `Cc1cc(Cl)c2oc(C(=O)NCCN3CCCCC3CO)c(C)c2c1` (stereo not drawn), the “hERG current change (%, negative = inhibition) at 1uM” value is given as -7.44%.
Under `CC1CCCC(C)N1S(=O)(=O)c1ccc(S(=O)(=O)NCc2ccccc2)cc1` (stereo not drawn) stands 15.1%; under `COc1cc(-c2nnc3n2CCCCC3)cc(OC)c1OC`, 10.8%; under `CC(C)(C)OC(=O)N[C@@H](Cc1ccccc1)C(=O)N1CCC(C(=O)O)CC1`, 5.11%.
Next, `CC1CN=C(Nc2ccc(F)c(Cl)c2)S1` (stereo not drawn): 12.8%.
Next, `O=C(OCCCOC(=O)c1cc[n+]([O-])cc1)c1cc[n+]([O-])cc1`: 10.5%; `Cc1ccc(S(=O)(=O)N2CCOCC2)cc1NC(=O)COC(=O)c1ccccc1OCc1c(C)noc1C`: -1.21%; `Cn1c(Cn2c(=O)sc3ccccc32)nnc1SCc1ccccc1F`: -25.7%.
In the case of `CCCCn1c(SCC(=O)NC2CCS(=O)(=O)C2)nc2cc(S(N)(=O)=O)ccc21` (stereo not drawn), the “hERG current change (%, negative = inhibition) at 1uM” value worked out at 3.42%.
Next, `Nc1cccc(-c2cc3ccccc3oc2=O)c1`: 13.8%.
Next, `COCCN1C(=O)N(c2ccc(OC)cc2)C(=O)C1CC(=O)Nc1cccc(F)c1` (stereo not drawn): 11.1%; `NNC(=O)c1ccccc1OCCOc1ccccc1`: 15.4%; `COc1cccc(CN2CCNC(=O)C2CC(=O)N(C)Cc2nc(C)cs2)c1OC` (stereo not drawn): 0.462%.
Next, `CCC1OC(c2ccc([N+](=O)[O-])cc2)=Nc2ccccc21` (stereo not drawn): 8.82%.
For the molecule `c1ccc(-c2ccc(C(c3ccccc3)n3ccnc3)cc2)cc1` (stereo not drawn), the “hERG current change (%, negative = inhibition) at 1uM” value is 12.8%.
Next, `CCNC(=S)N(CCc1c(C)[nH]c2ccc(F)cc12)Cc1cccnc1`: -0.608%; `S=C(Nc1ccccc1Oc1ccccc1)Nc1cccc(Cl)c1Cl`: 5.31%.
Under `CN(C)C1(CNC(=O)C2CCN(S(=O)(=O)c3c(Cl)cccc3Cl)CC2)CCCCC1` stands -33.9%; under `O=C(Nc1cccc(Cl)c1)NC1CC2CCC(C1)N2Cc1cccs1` (stereo not drawn), 2.2%; under `O=c1c2ccccc2[nH]c(=S)n1-c1ccc(Br)cc1`, 11.6%.
Next, `O=C(OCn1cncn1)c1ccc(Cl)cc1Cl`: 6.33%; `COc1ccccc1CNCC(=O)N1CC(=O)Nc2ccccc21.O=C(O)C(=O)O`: 6.72%; `COc1cccc(N(C(=O)Cn2nnc(-c3ccc(F)cc3)n2)C(C(=O)NCC2CCCO2)c2ccc(Cl)cc2)c1` (stereo not drawn): 14.1%.
Take `O=C(N[C@@H](Cc1c[nH]c2ccccc12)C(=O)O)c1ccccc1Cl`: the “hERG current change (%, negative = inhibition) at 1uM” value was 1.95%.
Next, `CCOC(=O)c1[nH]c2ccccc2c1NC(=S)Nc1ccccc1`: 13.2%; `COc1nc(N(C)C)nc(N(OC)S(=O)(=O)c2ccccc2Cl)n1`: -3.17%; `Cc1nnc(SCC(=O)Nc2ncc3c(n2)CC(C)(C)CC3=O)s1`: 15.8%.
Under `COc1ccc(CCNC(=S)N2CCC(Cc3ccccc3)CC2)cc1OC` stands -11.2%; under `Cc1c(C)[n+](=O)c(-c2ccc(F)cc2)c(C)n1[O-]`, 4.01%; under `NC(=O)c1ccc(NC(=O)CCCN2C(=O)c3ccccc3C2=O)cc1`, 10.7%.
For the molecule `Cc1nc(-c2ccccn2)sc1C(=O)Nc1ccc(F)cc1F`, the “hERG current change (%, negative = inhibition) at 1uM” value came out at 14.5%.
Under `CC1(C)Oc2ccc(C(=O)Nc3ccccc3)cc2N(CC#N)C1=O` stands 15.3%; under `O=C(Cn1cc2c(n1)CCCC2)NCCCN1CCN(C2CCCCC2)CC1`, 10.9%.
Next, `CN1C(=O)S/C(=C/c2ccc(OCc3cccc(C(=O)O)c3)cc2)C1=O`: 13.6%; `O=C(C[n+]1ccc(C(=O)N/N=C/c2ccc(OCc3ccccc3)cc2)cc1)c1ccccc1.[Br-]`: 21.3%.
Next, `COc1cc(CNCCSc2nnnn2C)cc(Br)c1OCc1ccccc1F.Cl`: 4.34%.
As for `Cn1c(=O)c2c(nc(CN3CCOCC3)n2CC(O)CO)n(C)c1=O` (stereo not drawn), the “hERG current change (%, negative = inhibition) at 1uM” value is -2.92%.
In the case of `CCn1c(CCNC(=O)c2cccs2)nnc1SCC(=O)NC1CCCCC1`, the “hERG current change (%, negative = inhibition) at 1uM” value worked out at 0.54%.
Under `COc1ccc(/C=N/NC(=O)c2cccc(O)c2)cc1Cn1nc(C)c([N+](=O)[O-])c1C` stands 17.7%.
Next, `COC(=O)c1c(NC(=O)CN2CCC3(O)CCCCC3C2c2ccc(F)cc2)sc(C)c1C` (stereo not drawn): 2.37%; `Cc1ccc(CN(Cc2cc3cc(C)ccc3[nH]c2=O)C(=O)N2CCOCC2)cc1`: -4.51%.
Next, `COc1ccc(C2(CCN)CC(C)N(C)CC2C)cc1.Cl` (stereo not drawn): 4.32%.
On to `CCOC(=O)c1[nH]c(COC(=O)c2ccccc2NC(=O)c2ccco2)c(C(=O)OCC)c1C`, for which the “hERG current change (%, negative = inhibition) at 1uM” value is given as 14.2%.
Next, `COc1ccc(C2=NS(=O)(=O)N(C)C(C(=O)NC(C)c3ccccc3)=C2)cc1OC` (stereo not drawn): 9.28%; `NC(=S)NNC(=O)c1ccccc1`: -1.13%.
